SMILES strings stand for the structures.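 Assay format: 96-well plates, 48-hour exposure. GI50: concentration for 50% inhibition of growth.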 Activity calls are given as the source filed them. Cut-off read from the data, not from the text of the source: active = GI50 up to about 1.1 µM and inactive = higher.

The text below walks through data of ChEMBL document CHEMBL1201862, “PubChem BioAssay data set” (2004).

For this test, the system named is NCI-H322M. In words: inhibition of tumour cell growth, NCI panel, 48 h.
On to `Cc1nc2ccccc2nc1NS(=O)(=O)c1ccc(N)cc1`, for which the GI50 was inactive: > 100 µM.

As for `COC1C=COC2(C)Oc3c(C)c(O)c4c(O)c(c(C5SCCS5)c(O)c4c3C2=O)NC(=O)/C(C)=C\C=CC(C)C(O)C(C)C(O)C(C)C(OC(C)=O)C1C` (stereo unspecified), the GI50 is inactive: 17.9 µM.

Turning to `CN(C)C(=O)OC1=CC2CCC(C1)N2C` (stereo unspecified), the GI50 is inactive: > 100 µM.

In the case of `O=C=C=P(c1ccccc1)(c1ccccc1)c1ccccc1`, the GI50 was inactive: > 100 µM.

For `CCOC(=O)/C1=C(\C)N(Cc2ccccc2)C(=O)c2ccccc2C(=O)c2c(O)ccc(O)c21`, the GI50 was inactive: 90.6 µM.

With `CC[C@@H](C)[C@H]([C@H](CC(=O)N1CCC[C@@H]1[C@@H](OC)[C@H](C)C(=O)N[C@H](Cc1ccccc1)c1nccs1)OC)N(C)C(=O)[C@H](NC(=O)[C@@H](C(C)C)N(C)C)C(C)C`, the GI50 is active: 0.000106 µM.

In the case of `CCCCCCCCCCCC(=O)Oc1c(Cl)cc(Cl)c(OC(=O)C(=O)Oc2c(Cl)cc(Cl)c(OC(=O)CCCCCCCCCCC)c2Cl)c1Cl`, the GI50 was inactive: > 100 µM.

On to `Cc1ccc(-n2cc(-c3ccc(Cl)cc3)c(C#N)c2N)cc1`, for which the GI50 was inactive: 16.6 µM.

Consider `C/C(=N\Nc1nc2ccccc2[nH]1)c1cc2ccccc2cn1`, for which the GI50 was active: 0.0611 µM.

As to `O=[N+]([O-])C(/C(Cl)=C(/Cl)N1CCCCC1)=C1\NCCO1`, the GI50 is inactive: > 100 µM.

Turning to `CNC(=O)NCCN1N=C(C)/C(=C\c2ccccc2)CC1=O`, the GI50 is inactive: > 100 µM.

Take `O=C1C2=C(c3ccccc31)C(c1ccc([N+](=O)[O-])cc1)NC(S)=N2` (stereo unspecified): the GI50 is inactive: > 100 µM.

For `CCOC(=O)C1=CN2C(=N[C@H]3CCCC[C@@H]32)NC1=O`, the GI50 was inactive: > 100 µM.

As to `CCCCCCOC(=O)C(N)Cc1ccc(OC)cc1` (stereo unspecified), the GI50 is inactive: > 100 µM.

For `N#Cc1c2ccc([N+](=O)[O-])cc2c(=O)n2c1[nH]c1ccc(C(F)(F)F)cc12`, the GI50 is inactive: 10.2 µM.

For the molecule `COc1ccc(S(=O)(=O)Nc2ccc(-c3csc(N4C(=O)/C(=C/C=C\c5ccccc5)N=C4c4ccccc4)n3)cc2)cc1Cl`, the GI50 is inactive: 41 µM.

For `COC(=O)c1ccc(CS(=O)(=O)c2ccccc2)cc1`, the GI50 is inactive: > 100 µM.

On to `O=C1CNc2cc(N3CCN(c4cccc(C(F)(F)F)c4)CC3)ccc2N1`, for which the GI50 was inactive: > 100 µM.

Take `CCOC(=O)C(C)N1C(=O)c2ccccc2S1(=O)=O` (stereo unspecified): the GI50 was inactive: > 100 µM.

As to `CCCS(=O)OC1C(C2COC(C)(C)O2)OC2OC(C)(C)OC21` (stereo unspecified), the GI50 is inactive: 16.4 µM.

Consider `COC(=O)C(Cc1ccccc1I)C1=CCC2(CC1)OCCO2` (stereo unspecified), for which the GI50 was inactive: 37.2 µM.

Take `CNC(=O)N1CCN(C(=O)NC)CCN(C(=O)NC)CC1`: the GI50 was inactive: > 100 µM.

With `CN(C)CCCNC(=O)c1cccc2nc3ccccc3nc12`, the GI50 was inactive: 10.6 µM.

With `O=c1cc(N2CCCC2)[nH]c(=O)n1-c1cccc(Cl)c1`, the GI50 was inactive: > 100 µM.

For `CC(C)C1=C2CCC3(C)C(CCC4C5C6OCC5(CCC6(C)C)CCC43C)C2(C)CC1` (stereo unspecified), the GI50 was inactive: 38.8 µM.

For `CC(=O)NC1C(OC(C)C(=O)NC(C(=O)NC(CCC(=O)NCCCNC2c3ccccc3Nc3cccc([N+](=O)[O-])c32)C(N)=O)C(C)C)C(O)C(CO)OC1(C)OCc1ccccc1` (stereo unspecified), the GI50 is active: 1.11 µM.

For `COC(=O)C(Cc1ccc2c(c1)CCCC2)Cc1cc2c(cc1C(O)OC)CCC2` (stereo unspecified), the GI50 was inactive: > 100 µM.

In the case of `O=S(=O)(O)c1ccc(/N=N/c2c(O)ccc3ccccc23)cc1`, the GI50 is inactive: > 100 µM.

As for `FC(F)(F)c1ccc2c(c1)nc(-c1ccc(Cl)cc1)n2CC1CCCN2CCCCC12` (stereo unspecified), the GI50 was inactive: 12.6 µM.

With `O=C1CCCN(c2ccccc2)N1`, the GI50 is inactive: > 100 µM.

Consider `CCCCCCCCCCCCCCCC(=O)Nc1ccn(C2OC(CO)C(O)C2O)c(=O)n1` (stereo unspecified), for which the GI50 is inactive: 36.2 µM.
